Six compounds from PubChem BioAssay (NCI) can be followed below.

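Cultured in 96-well plates, cells were exposed to test compound for 48 hours across five concentrations. Here, GI50 denotes the concentration required for 50% inhibition of growth. TGI marks complete inhibition of growth.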

This test concerns NCI-H322M lung. In words: NCI anticancer screen, dose series, 48 h.
`C#C[C@]1(O)CC[C@H]2[C@@H]3CC=C4c5sc(Nc6ncccc6C)nc5CC[C@]4(C)[C@H]3CC[C@@]21C`: the GI50 is 3.3 µM and the TGI was 15.4 µM.
With `CN(C)CCCOc1ccc(C(=C(c2ccccc2)C2CCCC2)c2ccc(OCCCN(C)C)cc2)cc1`, the GI50 was 2.35 µM and the TGI came to 6.05 µM.
`CC(C)(O)c1cncc(-c2ccc3ncnc(N4CCc5cc(F)c(Cl)cc54)c3c2)c1`: the GI50 is 0.641 µM and the TGI is above 100 µM.
For `COc1ccc(-c2cnc(NC(=O)CCCCCCNC(=O)C(O)(O)C(F)(F)F)s2)cc1`, in that order: 1.44 µM and 18.9 µM.
In the case of `CNC(=O)c1cc(-c2ccc(NC(=O)Nc3ccc(N4CCN(C)CC4)c(C(F)(F)F)c3)cc2)nc2cccnc12`, the GI50 was 15.6 µM and the TGI worked out at 29.8 µM.
For the compound `COc1ccc(CNS(=O)(=O)/N=C2\NC(=O)NC2=C(Cl)Cl)cc1`, the GI50 is 2.06 µM and the TGI is above 100 µM.
